Test results from PubChem BioAssay AID488969 (Vanderbilt High Throughput Screening Facility, 2010).
Over roughly 110,000 compounds, “z-score” has its median near -0.1; the highest 2% begin near 2. The list shows a part of the results. Calls of active or inactive are those of the source.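 How the source made its calls: active means z-score in the third read window above 3 or below -3; inactive means the rest.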

molecular target: Metabotropic glutamate receptor 8 (Rattus norvegicus) (UniProt P70579); assay: rat mGluR8 modulators via GIRK flux, primary screen, cell-based, thallium flux, HTS (AID 488969); conditions: HEK293 rat mGluR8, GIRK (G protein-gated inwardly rectifying potassium channel) thallium flux, FluoZin2; at 10 µM; stronger effect = higher value; submaximal glutamate (EC20) added with thallium
UniProt P70579, sequence (P70579 whole entry, looked up): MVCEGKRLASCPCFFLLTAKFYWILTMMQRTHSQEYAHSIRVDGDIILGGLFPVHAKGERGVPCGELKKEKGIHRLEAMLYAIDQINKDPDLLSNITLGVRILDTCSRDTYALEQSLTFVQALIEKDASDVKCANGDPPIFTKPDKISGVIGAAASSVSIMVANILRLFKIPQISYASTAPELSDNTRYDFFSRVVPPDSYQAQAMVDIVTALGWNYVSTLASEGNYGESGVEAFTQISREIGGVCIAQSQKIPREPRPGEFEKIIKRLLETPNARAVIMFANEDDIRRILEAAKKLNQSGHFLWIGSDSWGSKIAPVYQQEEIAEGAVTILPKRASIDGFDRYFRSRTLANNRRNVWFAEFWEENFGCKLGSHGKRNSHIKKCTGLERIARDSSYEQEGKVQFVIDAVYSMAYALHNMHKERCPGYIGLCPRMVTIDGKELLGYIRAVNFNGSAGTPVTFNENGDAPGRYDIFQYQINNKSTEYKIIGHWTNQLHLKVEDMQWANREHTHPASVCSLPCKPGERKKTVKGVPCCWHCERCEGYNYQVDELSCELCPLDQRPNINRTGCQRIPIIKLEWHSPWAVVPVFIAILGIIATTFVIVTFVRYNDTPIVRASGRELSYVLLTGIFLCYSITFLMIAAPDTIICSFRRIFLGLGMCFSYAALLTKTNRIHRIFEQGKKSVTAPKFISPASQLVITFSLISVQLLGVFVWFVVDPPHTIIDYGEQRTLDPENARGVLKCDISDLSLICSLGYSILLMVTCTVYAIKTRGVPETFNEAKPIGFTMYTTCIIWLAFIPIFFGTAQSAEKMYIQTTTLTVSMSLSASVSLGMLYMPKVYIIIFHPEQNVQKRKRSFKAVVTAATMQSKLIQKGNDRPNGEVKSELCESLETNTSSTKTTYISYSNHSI

Structure (SMILES)	z-score
Cc1cc(C(=O)COC(=O)c2n[nH]c3ccccc23)c(C)n1CC1CCCO1 (stereo not given)	-0.235
Cc1ccc2c(COC(=O)C3=COCCO3)cc(=O)oc2c1	-0.264
O=C(C1CCCN(S(=O)(=O)c2cccnc2)C1)N1CCn2c1nc1ccccc12 (stereo not given)	-0.382
O=C(N=Nc1c(O)[nH]c2ccc([N+](=O)[O-])cc12)c1cc(-c2ccccc2Cl)nc2ccccc12	-0.0425
CCOc1ccc(NC(=O)CSc2ncnc3c2sc2ccccc23)cc1	-0.0671
CCCn1c(/N=C/c2ccccc2O)nc2ccccc21	-1.25
Cc1cc(Cl)ccc1NC(=O)CN1CCC(C(O)(c2ccccc2)c2ccccc2)CC1	-0.415
CC(C)NS(=O)(=O)c1ccc(OCC(=O)N2CCCC2)cc1	-0.369
O=C1/C(=C/c2ccc(N3CCCC3)cc2)NC(=S)N1C1CC1	2.85
COc1cccc(C2=CC(c3ccc(C)cc3)n3ncnc3N2)c1 (stereo not given)	-0.652
c1ccc(Nc2ccccc2Nc2ccccn2)nc1	-0.0266
O=C(c1ccc(Cl)cc1)c1c[nH]c(C(=O)C(Cl)(Cl)Cl)c1	-1.4
CCS(=O)(=O)c1ccc(O)c(NC(=O)COc2ccccc2)c1	-0.128
CCOc1ccccc1N1CCN(C/C=C/c2ccc(N(C)C)cc2)CC1	-0.298
COc1cccc2cc(C(=O)C3=C(O)C(=O)N(Cc4ccco4)C3c3cccnc3)oc12 (stereo not given)	-1.04
CCCS(=O)(=O)c1c(S(=O)(=O)CCC)c2cnccn2c1C(=O)c1ccc(CC)cc1	0.111
CCCC(=O)NCCCc1nc2ccccc2n1C(C)C	-0.423
COC(=O)c1ccc(/C=C(\C#N)c2nc3ccccc3s2)cc1	0.103
O=C(Cc1ccccc1)Nc1cccc(-c2nc3ncccc3o2)c1	-0.188
O=C(CCc1nc2ccccc2s1)OCc1ccccc1F	-0.0861
CCCn1nc2cc(C(=O)NCc3ccc(C)cc3)ccc2c1OCC	-0.255
CSc1nsc(SCC(=O)N2CCN(c3ccccc3)CC2)n1	0.374
O=C(N/N=C/c1cccs1)c1ccco1	0.3
O=C(N/N=C/c1ccco1)c1cccs1	-0.0413

Structure (SMILES)	z-score
CCOc1ccc(OCC)c(S(=O)(=O)NCc2cccnc2)c1	-0.172
NC(=O)C1CCCN(CCc2ccccc2)C1 (stereo not given)	0.194
Cc1ccc(C(=O)Nc2cccnc2)cc1NC(=O)c1ccco1	-0.0258
CCCS(=O)(=O)N1CCN(C(=O)COc2ccc(OC)cc2)CC1	-0.48
Cc1nc2oc3c(NCC4CCCO4)ncnc3c2c2c1COC(C)(C)C2 (stereo not given)	0.197
CCOC(=O)C1=C(N)Oc2ccc3ccccc3c2C1c1cccnc1 (stereo not given)	-0.381
CCOc1cc(/C=N/NC(=O)c2cc(C)[nH]n2)ccc1OC(=O)c1ccc([N+](=O)[O-])cc1	-0.712
Cc1onc(-c2ccccc2)c1C(=O)Nc1sc2c(c1C(N)=O)CCC2	0.59
CCOC(=O)N1CCC(NC(=O)C2CCN(S(=O)(=O)c3cccs3)CC2)CC1	0.219
Cc1cc(C)n(C(=O)c2c([N+](=O)[O-])cnn2C)n1	0.13
COCCNC(=O)CSc1nc(N)c(NC(=O)c2ccccc2F)c(=O)[nH]1	-0.129
COc1ccc(CCN2C(=O)CC(NCc3ccc4c(c3)OCO4)C2=O)cc1OC (stereo not given)	-0.161
CCC(CC)C(=O)NCCc1cc2c(OC)ccc(OC)c2[nH]c1=O	0.00036
Cc1cc(NC(=O)c2cc(-c3cccnc3)nc3c(C)c(C)ccc23)no1	-0.63
CN(CC(=O)Nc1cccc2ccccc12)c1ccc(S(=O)(=O)N2CCOCC2)cn1	0.0637
O=C(CNC(=O)c1cccs1)OCC(=O)c1cccs1	0.0956
Cc1ccccc1OCC(=O)NCC(=O)N/N=C/C=C/c1ccccc1	-0.291
Cc1ccc(NC(=O)Cn2c(=O)n(Cc3ccco3)c(=N)c3c4c(sc32)COC(C)(C)C4)cc1	-0.0547
Fc1cccc(NC(=S)NCc2ccccn2)c1	-0.103
O=c1[nH]c(SCc2n[nH]c(=S)n2-c2ccccc2)nc2ccccc12	-1.63
COc1cccc(C2CC(C(F)(F)F)n3nc(C(=O)NCc4cccnc4)cc3N2)c1 (stereo not given)	0.302
CCOC(=O)Nc1sc(C(=O)N(C)C)c(C)c1C(=O)OCC	-0.0884
Cc1cc(NS(=O)(=O)c2ccc(NC(=O)Nc3ccc4c(c3)OCO4)cc2)no1	0.0589
CCn1c(NN)nc2sc3c(c2c1=O)CCC3	1.56

Structure (SMILES)	z-score
O=C(Nc1cc2c3c(c1)C1CCCC1CN3CC1CCCC21)c1ccc([N+](=O)[O-])cc1 (stereo not given)	0.0676
O=C(CN(Cc1ccccc1)C(=O)c1cc2c(s1)CCC2)NCc1cccs1	-0.121
CC/C(=N/NC(=O)c1ccc(Br)cc1)c1ccc(OCCN2CCOCC2)cc1	0.509
C=CCn1c2ccccc2c2nnc(SC(CC)C(=O)Nc3sc4c(c3C#N)CCCC4)nc21 (stereo not given)	-0.689
O=C(CN1CCCCCCC1)N/N=C/c1ccccc1F	-0.0187
O=C(O)C1CC(O)CN1C(=O)c1ccco1 (stereo not given)	-0.286
Cc1ccccc1CCN(C(=O)CN1C(=O)c2ccccc2S1(=O)=O)C(C(=O)NCC1CCCO1)c1ccncc1 (stereo not given)	-0.37
CN(C(=O)c1ccco1)c1nc2c(s1)CCCC2	-0.447
O=C(COc1ccccc1Cl)N1CCN(c2ccc([N+](=O)[O-])c(N3CCCCC3)c2)CC1	-1.03
O=c1c2nnn(Cc3ccc(Cl)cc3)c2ncn1Cc1ccc(F)cc1	-0.115
COC(=O)CC(NC(=O)c1ccco1)c1ccc(C(C)C)cc1 (stereo not given)	0.0776
COC(=O)CCc1c(C)nc(N)[nH]c1=O	0.278
CC(=O)Nc1c(C(=O)N2CCOCC2)sc2nc3c(cc12)COC(C)(C)C3	0.0685
CCOC(=O)Cn1cc(C(=O)c2cccs2)c2ccccc21	-0.568
COC(=O)c1c(C(=O)OC)c(-c2ccccc2)n2c1CCC2	-0.151
COCCSc1ccccc1C(=O)Nc1cc(C)on1	-0.199
Cc1cc([N+](=O)[O-])ccc1-c1ccc(C2Nc3ccccc3C(=O)N2O)o1 (stereo not given)	active: 3.53
Cc1ccc2cc3cc(C(=O)N4CC(C)CC(C)C4)oc3nc2c1 (stereo not given)	0.501
Cc1ccc(C)c(NC(=O)CS(=O)(=O)c2c[nH]c3ccccc23)c1	0.438
CC1CCN(C(=O)CSc2nnc(CNC(=O)COc3ccc(Cl)cc3)o2)CC1	-0.0799
O=C(COc1ccc(Cl)cc1Br)NC(=O)NCc1ccccc1	-0.086
COc1ccccc1N1CCN(CCCNC(=O)Nc2ccccc2C)CC1	-0.626
